Data as given in the supplement of paper PMC4967469.

Columns and labels:
Experiment in all cases: Viability of human cancer cell lines after 72 h of drug (GDSC screen)
[1] = compound: COc1nc(C)cnc1NS(=O)(=O)c1cccnc1-c1ccc(-c2nnco2)cc1 [Zibotentan]; settings: top dose 20 µM; top dose inferred
Protocol: (§1)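 Human cancer cell lines in 384-well plates, medium with 10% serum, drug for 72 h over a 256-fold dose range (nine 2-fold or five 4-fold steps up to the top dose). Adherent lines were fixed and stained with the nucleic acid dye Syto60, suspension lines read with resazurin; signal relative to control wells, capped at 0 and 100%. One two-parameter sigmoid per drug and line, fitted in a mixed model over all curves with the slope shared within a line.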

[2] = compound: Cc1cnc(-c2cnc(NCCNc3ccc(C#N)cn3)nc2-c2ccc(Cl)cc2Cl)[nH]1 [CHIR-99021]
Protocol: as §1

[3] = compound: COc1cc2ncnc(-n3nc(-c4ccccn4)nc3N)c2cc1OC [CP466722]; settings: top dose 16 µM; top dose inferred
Protocol: as §1

[4] = compound: Cc1ccc(F)c(NC(=O)Nc2ccc(-c3cccc4[nH]nc(N)c34)cc2)c1 [ABT-869]; settings: top dose 1.024 µM; top dose inferred
Protocol: as §1

[5] = compound: C=CC(=O)Nc1cc(-n2c(=O)ccc3cnc4ccc(-c5cn[nH]c5)cc4c32)ccc1C [QL-X-138]; settings: top dose 10.24 µM; top dose inferred
Protocol: as §1

[6] = compound: C/C=C(/C)C(=O)O[C@H]1C(C)=C2[C@H]([C@@H]1OC(=O)CCCCCCC)[C@@](C)(OC(C)=O)C[C@H](OC(=O)CCC)[C@@]1(O)[C@H]2OC(=O)[C@@]1(C)O [Thapsigargin]; settings: top dose 0.512 µM; top dose inferred
Protocol: as §1

[7] = compound: CCn1c(-c2nonc2N)nc2cnc(Oc3cccc(NC(=O)c4ccc(OCCN5CCOCC5)cc4)c3)cc21 [GSK269962A]; settings: top dose inferred
Protocol: as §1

[8] = compound: COc1cc(O)c2c(c1)/C=C/C[C@H](O)[C@H](O)C(=O)/C=C\C[C@H](C)OC2=O [(5Z)-7-Oxozeaenol]; settings: top dose 10 µM; top dose inferred
Protocol: as §1

[9] = compound: COc1cc(N2CCC(O)CC2)ccc1Nc1cc(Nc2ccccc2S(=O)(=O)C(C)C)c2cc[nH]c2n1 [MPS-1-IN-1]; settings: top dose 20 µM; top dose inferred
Protocol: as §1

[10] = top dose 2.56 µM, screen: GDSC drug entry 154
[11] = top dose 10 µM, screen: GDSC drug entry 1241, top dose inferred
[12] = top dose 5 µM, screen: GDSC drug entry 1192
[13] = top dose 2.5 µM, screen: GDSC drug entry 127

| Cell Line | AUC [1] | pIC50 [1] | AUC [2, 10] | pIC50 [2, 10] | AUC [2, 11] | pIC50 [2, 11] | AUC [3] | pIC50 [3] | AUC [4] | pIC50 [4] | AUC [5] | pIC50 [5] | AUC [6] | pIC50 [6] | AUC [7, 12] | pIC50 [7, 12] | AUC [8] | pIC50 [8] | AUC [9] | pIC50 [9] | AUC [7, 13] | pIC50 [7, 13] |
| --- | --- | --- | --- | --- | --- | --- | --- | --- | --- | --- | --- | --- | --- | --- | --- | --- | --- | --- | --- | --- | --- | --- |
| HSC-3 (head and neck, adherent) | 0.99 | < 4.70 | 0.976 | < 5.59 | 0.981 | < 5.00 | 0.95 | < 4.80 | 0.985 | < 5.99 | 0.903 | 5.00 | 0.35 | 7.88 | 0.342 | 6.91 | 0.413 | 6.43 | 0.977 | < 4.70 |  |  |
| HTC-C3 (thyroid, adherent) | 0.983 | < 4.70 | 0.98 | < 5.59 | 0.961 | < 5.00 | 0.676 | 5.48 | 0.975 | < 5.99 | 0.728 | 5.51 | 0.407 | 7.76 | 0.96 | < 5.30 | 0.27 | 6.90 | 0.842 | 4.78 |  |  |
| Hs940-T (melanoma, adherent) | 0.984 | < 4.70 | 0.798 | 5.82 | 0.839 | 5.05 | 0.699 | 5.38 | 0.982 | < 5.99 | 0.638 | 5.77 | 0.163 | 8.64 | 0.646 | 6.06 | 0.789 | 5.26 | 0.984 | < 4.70 |  |  |
| IM-95 (stomach, adherent) | 0.984 | < 4.70 | 0.956 | < 5.59 | 0.979 | < 5.00 | 0.832 | 4.95 | 0.972 | < 5.99 | 0.76 | 5.42 | 0.202 | 8.41 | 0.935 | < 5.30 | 0.972 | < 5.00 | 0.923 | < 4.70 |  |  |
| J82 (bladder, adherent) | 0.987 | < 4.70 | 0.976 | < 5.59 | 0.948 | < 5.00 | 0.974 | < 4.80 | 0.978 | < 5.99 | 0.899 | < 4.99 | 0.277 | 8.12 | 0.825 | 5.52 | 0.632 | 5.84 | 0.986 | < 4.70 |  |  |
| KP-4 (pancreas, adherent) | 0.986 | < 4.70 | 0.988 | < 5.59 | 0.985 | < 5.00 | 0.877 | 4.83 | 0.988 | < 5.99 | 0.622 | 5.86 | 0.295 | 8.06 | 0.72 | 5.89 | 0.636 | 5.84 | 0.98 | < 4.70 |  |  |
| KYSE-180 (oesophagus, adherent) | 0.987 | < 4.70 | 0.926 | < 5.59 | 0.984 | < 5.00 | 0.877 | 4.83 | 0.984 | < 5.99 | 0.83 | 5.22 | 0.195 | 8.38 | 0.861 | 5.41 | 0.79 | 5.37 | 0.728 | 5.27 |  |  |
| KYSE-270 (oesophagus, adherent) | 0.991 | < 4.70 | 0.972 | < 5.59 | 0.964 | < 5.00 | 0.897 | 4.83 | 0.979 | < 5.99 | 0.886 | 5.07 | 0.167 | 8.41 | 0.922 | < 5.30 | 0.674 | 5.76 | 0.877 | 4.82 |  |  |
| LU-99A (large cell lung carcinoma, adherent) | 0.986 | < 4.70 | 0.987 | < 5.59 | 0.983 | < 5.00 | 0.839 | 4.97 | 0.984 | < 5.99 | 0.918 | < 4.99 | 0.194 | 8.40 | 0.923 | < 5.30 | 0.581 | 5.98 | 0.868 | 4.75 |  |  |
| ML-1 (thyroid, adherent) | 0.982 | < 4.70 | 0.892 | < 5.59 | 0.977 | < 5.00 | 0.757 | 5.19 | 0.983 | < 5.99 | 0.806 | 5.20 | 0.151 | 8.68 | 0.944 | < 5.30 | 0.742 | 5.45 | 0.963 | < 4.70 |  |  |
| NCI-H196 (small cell lung carcinoma, adherent) | 0.988 | < 4.70 | 0.988 | < 5.59 | 0.987 | < 5.00 | 0.82 | 5.01 | 0.988 | < 5.99 | 0.904 | < 4.99 | 0.846 | 6.40 | 0.961 | < 5.30 | 0.943 | < 5.00 | 0.9 | < 4.70 |  |  |
| NCI-H1299 (large cell lung carcinoma, adherent) | 0.974 | < 4.70 | 0.976 | < 5.59 | 0.972 | < 5.00 | 0.818 | 4.93 | 0.982 | < 5.99 | 0.768 | 5.33 | 0.191 | 8.53 | 0.962 | < 5.30 | 0.693 | 5.61 | 0.922 | < 4.70 | 0.979 | < 5.60 |
| NCI-H1573 (lung adenocarcinoma, adherent) | 0.99 | < 4.70 | 0.991 | < 5.59 | 0.98 | < 5.00 | 0.883 | < 4.80 | 0.991 | < 5.99 | 0.968 | < 4.99 | 0.899 | < 6.29 | 0.973 | < 5.30 | 0.848 | 5.15 | 0.987 | < 4.70 |  |  |
| NCI-H1793 (lung adenocarcinoma, adherent) | 0.982 | < 4.70 | 0.979 | < 5.59 | 0.98 | < 5.00 | 0.806 | 4.90 | 0.982 | < 5.99 | 0.809 | 5.08 | 0.804 | 6.40 | 0.901 | < 5.30 | 0.979 | < 5.00 | 0.981 | < 4.70 |  |  |
| NCI-H1915 (large cell lung carcinoma, adherent) | 0.986 | < 4.70 | 0.949 | < 5.59 | 0.941 | < 5.00 | 0.843 | 4.94 | 0.981 | < 5.99 | 0.824 | 5.21 | 0.18 | 8.47 | 0.961 | < 5.30 | 0.744 | 5.50 | 0.931 | < 4.70 |  |  |
| PCI-38 (head and neck, adherent) | 0.974 | < 4.70 | 0.966 | < 5.59 | 0.871 | 5.02 | 0.946 | < 4.80 | 0.984 | < 5.99 | 0.903 | < 4.99 | 0.815 | 6.55 | 0.825 | 5.52 | 0.795 | 5.33 | 0.895 | < 4.70 |  |  |
| PL18 (pancreas, adherent) | 0.986 | < 4.70 | 0.987 | < 5.59 | 0.974 | < 5.00 | 0.953 | < 4.80 | 0.978 | < 5.99 | 0.904 | < 4.99 | 0.443 | 7.65 | 0.987 | < 5.30 | 0.779 | 5.39 | 0.976 | < 4.70 |  |  |
| RD (rhabdomyosarcoma, adherent) | 0.978 | < 4.70 | 0.982 | < 5.59 | 0.894 | < 5.00 | 0.843 | 4.89 | 0.985 | < 5.99 | 0.53 | 6.11 | 0.285 |  | 0.957 | < 5.30 | 0.42 | 6.43 | 0.828 | 4.86 |  |  |
| RT-112 (bladder, adherent) | 0.985 | < 4.70 | 0.915 | < 5.59 | 0.983 | < 5.00 | 0.918 | < 4.80 | 0.959 | < 5.99 | 0.694 | 5.63 | 0.223 | 8.34 | 0.895 | < 5.30 | 0.558 | 6.04 | 0.856 | 4.74 |  |  |
| SN12C (kidney, adherent) | 0.983 | < 4.70 | 0.982 | < 5.59 | 0.965 | < 5.00 | 0.935 | < 4.80 | 0.986 | < 5.99 | 0.897 | < 4.99 | 0.417 | 7.74 | 0.936 | < 5.30 | 0.641 | 5.79 | 0.986 | < 4.70 |  |  |
| SNU-398 (liver, adherent) | 0.978 | < 4.70 | 0.937 | < 5.59 | 0.984 | < 5.00 | 0.759 | 5.24 | 0.985 | < 5.99 | 0.433 | 6.38 | 0.039 | > 8.70 | 0.805 | 5.58 | 0.684 | 5.68 | 0.871 | < 4.70 |  |  |
| SW156 (kidney, adherent) | 0.984 | < 4.70 | 0.983 | < 5.59 | 0.984 | < 5.00 | 0.821 | 4.97 | 0.976 | < 5.99 | 0.902 | < 4.99 | 0.777 | 6.64 | 0.808 | 5.53 | 0.767 | 5.39 | 0.965 | < 4.70 |  |  |
| SW837 (large intestine, adherent) | 0.983 | < 4.70 | 0.969 | < 5.59 | 0.955 | < 5.00 | 0.774 | 5.07 | 0.981 | < 5.99 | 0.847 | < 4.99 | 0.252 | 8.32 | 0.978 | < 5.30 | 0.745 | 5.39 | 0.852 | < 4.70 |  |  |

pIC50: −log10 of the molar value. IC50 is the fitted dose that halves viability relative to control wells, and lower means more sensitive; a fit beyond the top or the lowest dose is shown as a bound at that dose. AUC, from the same fit, is the share of area under the viability curve across the 256-fold dose range; it is 1 without any effect and falls as sensitivity rises. A top dose marked as inferred was calculated from the reported fits. For some assays here: Drugs with an entry number were screened twice under separate entries, and the two screens often disagree.
